The campaign covered roughly 260,000 compounds. About 150 (0.058%) were called active. Inconclusive means that the source gave no clear call. Such entries were picked first, then a sample of the others. Calls come from the whole dose curve; as a rule, active = well fitted inhibition curve with a large enough effect; inconclusive = small, poorly fitted or top-dose-only effect; inactive = no such curve, though single readings can be large or run the other way. Potencies of inconclusive entries are left out as doubtful fits.
Biological target: Pyruvate kinase PKM (Homo sapiens) (UniProt P14618)
Test: qHTS Assay for Inhibitors of Human Muscle isoform 2 Pyruvate Kinase; note: nearly all actives have a fitted effect of over 60% in size
Settings: purified PKM2, ATP generation, Kinase-Glo luminescence; series mostly up to 57.5 µM
In short: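 Enzyme run at intermediate activity with final 0.1 mM ADP, 0.5 mM PEP (50 mM imidazole pH7.2, 50 mM KCl, 7 mM MgCl2), incubated 1 h at r.t. ATP formed read by Kinase-Glo luminescence, normalized to no-enzyme (full inhibition) and uninhibited wells.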
Potency is the fitted concentration of half-maximal effect; tags give direction and shape of the fitted curve.

UniProt P14618, sequence (P14618 whole entry, looked up, canonical isoform): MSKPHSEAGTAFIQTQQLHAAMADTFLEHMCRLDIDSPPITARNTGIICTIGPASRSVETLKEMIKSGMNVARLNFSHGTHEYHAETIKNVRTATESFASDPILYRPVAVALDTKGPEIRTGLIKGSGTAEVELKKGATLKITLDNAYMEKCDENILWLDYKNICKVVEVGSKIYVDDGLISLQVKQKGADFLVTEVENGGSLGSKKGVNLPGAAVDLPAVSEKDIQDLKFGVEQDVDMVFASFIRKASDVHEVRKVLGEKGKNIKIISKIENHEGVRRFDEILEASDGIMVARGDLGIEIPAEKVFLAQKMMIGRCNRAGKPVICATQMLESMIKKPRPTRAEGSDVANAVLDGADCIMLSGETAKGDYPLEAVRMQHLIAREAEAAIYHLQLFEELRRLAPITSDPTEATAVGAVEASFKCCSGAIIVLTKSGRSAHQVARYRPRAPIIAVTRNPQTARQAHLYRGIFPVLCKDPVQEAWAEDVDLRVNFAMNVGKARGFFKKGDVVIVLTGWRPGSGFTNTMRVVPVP

Row | Compound | Potency
1 | Cc1cc(CNC(=O)COc2ccc(C#N)cc2)c2ccccc2n1 | inconclusive [falling, single point]
2 | O=C(O)CSc1ccc(NC(=O)Nc2ccccc2F)cc1 | inconclusive [falling, single point]
3 | COc1ccc(N=CC2=C(O)c3ccccc3C2=O)c(OC)c1 | inconclusive [falling, partial curve]
4 | COc1ccc(-n2nc(C(=O)NCC(=O)NCc3ccco3)c3ccccc3c2=O)cc1 | inconclusive [falling, single point]
5 | COc1ccc(-c2cn3cc(C)ccc3n2)cc1OC | inconclusive [falling, partial curve]
6 | COc1ccc(NC(=O)c2nc3ccccc3s2)cc1 | inconclusive [falling, single point]
7 | Cc1ccc(Nc2nc(-c3sc(NC(=O)c4ccco4)nc3C)cs2)cc1 | inconclusive [falling, single point]
8 | CCOc1ccc(S(=O)(=O)NCc2csc(C)n2)cc1 | inactive
9 | CC(=O)c1cnc2nc(SCc3ccccc3C)nn2c1C | inactive
10 | COc1ccc2nc(-c3cccc(N)c3)[nH]c2c1 | inconclusive [falling, single point]
11 | O=c1ccc2[n+]([O-])c3ccc(O)cc3oc-2c1 | inconclusive [falling, single point]
12 | CCOc1ccc(C(=O)Nc2cccc(C)n2)cc1 | inconclusive [falling, partial curve]
13 | CC(C)c1onc(C(=O)N2CCOCC2)c1[N+](=O)[O-] | inconclusive [falling, single point]
14 | COc1ccc(C(=O)Nc2ccccc2C(N)=O)cc1 | inconclusive [falling, single point]
15 | NC(=O)COC(=O)CNC(=O)c1sc2ccccc2c1Cl | inactive
16 | Cc1cccc(N2CCN(C(=O)c3cc4c(=O)n(C)c5ccccc5c4n3C)CC2C)c1 (stereo unspecified) | inactive
17 | Cc1cc(NC(=O)CSC2=NCCS2)no1 | inactive
18 | CC1(C)C(=O)C2(CCCCC2)C(=O)OC1c1cccs1 (stereo unspecified) | inconclusive [falling, single point]
19 | COc1cc(C(=O)O)c([N+](=O)[O-])c(OC)c1OC | inconclusive [falling, single point]
20 | Cc1ccnc(N2C(=O)c3ccccc3C2O)c1 (stereo unspecified) | inconclusive [falling, partial curve]
21 | N=C1C(c2ccccc2)=C(O)C2CCc3ccccc3N12 (stereo unspecified) | inconclusive [falling, full curve, poor fit]
22 | CCc1ccc(NC(=O)c2[nH]c(C)c(C(C)=O)c2C)cc1 | inactive
23 | CC(=O)N1CC=CC1(CC(C)C)C(=O)NCc1ccc(C)o1 (stereo unspecified) | inactive
24 | N#CCSc1nc2scc(-c3cccs3)c2c(=O)n1CCc1ccccc1 | inconclusive [falling, partial curve]
25 | Nc1nc(N2CCOCC2)nc(N(c2ccccc2)c2ccccc2)n1 | inconclusive [falling, single point]
26 | COc1ccc(NC(=O)Nc2ccccc2F)cc1 | inconclusive [falling, partial curve]

Row | Compound | Potency
27 | Cc1c(F)cccc1NS(=O)(=O)c1ccc2c(c1)c(=O)n(C)c(=O)n2C | inactive
28 | COc1cc(CNC(=O)C2CC2)ccc1OCc1ccccc1 | inconclusive [falling, partial curve]
29 | Cc1ccnc(N(C(=O)c2cccs2)C(=O)c2cccs2)c1 | inconclusive [falling, partial curve]
30 | N/C(=N\OC(=O)c1ccc(Cl)cc1)c1[nH]ncc1Br | inconclusive [falling, partial curve]
31 | CC1=C/C(=C(\c2cc(C)c(O)c(Br)c2)c2ccccc2S(=O)(=O)O)C=C(Br)C1=O | inconclusive [falling, partial curve]
32 | O=C1CCN(S(=O)(=O)c2ccccc2)CCN1CCOCc1cccc(F)c1 | inactive
33 | CC(=O)c1c(C)[nH]c(C(=O)Nc2cc(S(=O)(=O)N(C)C)ccc2C)c1C | inactive
34 | CCOC(=O)CCCCC(=O)c1[nH]c(=O)[nH]c1CSc1nc(C)cc(C)n1 | inconclusive [falling, single point]
35 | Cc1ccc(NC(=O)c2sccc2C)nc1 | inconclusive [falling, partial curve]
36 | COc1ccc(OC)c(NC(=O)Cn2cc(C(=O)c3ccco3)c3ccccc32)c1 | inactive
37 | Cc1ccc(-n2cc(S(=O)(=O)c3ccc(C)cc3)[nH]c2=O)cc1 | inactive
38 | Cc1cc(=O)[nH]c(NN=C2CCC(C(C)(C)C)CC2)n1 (stereo unspecified) | inconclusive [falling, single point]
39 | Cc1nc2nc(COc3ccccc3)[nH]n2c(=O)c1Cc1ccccc1 | inactive
40 | Cc1ccc(SCC(=O)NCCCc2ccccc2)cc1 | inconclusive [falling, single point]
41 | Fc1cccc(/C=N/Nc2nccnc2Cl)c1 | inconclusive [falling, partial curve]
42 | CCS(=O)(=O)N1Cc2ccccc2CC1C(=O)Nc1nc2ccccc2[nH]1 (stereo unspecified) | inactive
43 | O=C(CSc1nc2scc(-c3ccccc3)c2c(=O)[nH]1)N1CCCCC1 | inconclusive [falling, single point]
44 | Cc1sc(NC(=O)c2cccs2)nc1-c1ccccc1 | inconclusive [falling, full curve, poor fit]
45 | O=C(CN1C(=O)c2ccccc2C1=O)NCCOc1ccccc1 | inconclusive [falling, single point]
46 | COc1cccc(C(c2nnnn2Cc2ccc(F)cc2)N2CCC(C(N)=O)CC2)c1OC (stereo unspecified) | inactive
47 | CCCc1ccc(-c2ccc(F)c(N)c2)nc1 | inconclusive [falling, partial curve]
48 | Cc1cc(C)cc(NC(=O)CSc2nncn2-c2ccccn2)c1 | inactive
49 | O=C(Cc1ccsc1)N1CCc2c([nH]c3ccccc23)C1c1ccccn1 (stereo unspecified) | inconclusive [falling, partial curve, poor fit]
50 | Cn1cnnc1Sc1cc(N2CCN(S(=O)(=O)c3ccc4ccccc4c3)CC2)ccc1[N+](=O)[O-] | inactive
51 | COc1cc(/C=C/c2sc3ccccc3[n+]2CCCS(=O)(=O)[O-])ccc1O | inconclusive [falling, single point]
52 | Cc1ccc(O)c(CNc2nc3ccccc3[nH]2)c1 | inactive

Row | Compound | Potency
53 | COc1ccc(C)cc1C(=O)CCC(=O)Nc1ccccc1N1CCOCC1 | inactive
54 | CNC(=S)NNc1nc(C)cc(C)n1 | inconclusive [falling, single point]
55 | Cc1cc(C)cc(NC(=O)Nc2ccc(N3CCCCC3)cc2)c1 | inactive
56 | CS(=O)(=O)NNC(=O)c1sccc1OCc1ncc(C(F)(F)F)cc1Cl | inconclusive [falling, single point]
57 | NC1=NN=C(N2N=C(c3ccccc3)CC2(O)C(F)(F)F)n2ncnc2C1 (stereo unspecified) | inconclusive [falling, single point]
58 | O=C(CCC(=O)N1CCN(S(=O)(=O)c2ccccc2)CC1)NC1CCCc2ccccc21 (stereo unspecified) | inactive
59 | O=C(CC1C(=O)NCCN1C(=O)Nc1ccc(Cl)cc1)Nc1ccc(F)cc1 (stereo unspecified) | inconclusive [falling, single point]
60 | Cc1noc(C)c1C(=O)OCC(=O)N1CCN(S(=O)(=O)c2ccc3ccccc3c2)CC1 | inactive
61 | O=S(=O)(c1ccc(F)cc1)N1CCN(C(=S)NC2CCCC2)CC1 | inactive
62 | CC(C)(C)NS(=O)(=O)c1ccc(NC(=O)C(Sc2ccccc2)c2ccccc2)cc1 (stereo unspecified) | inconclusive [falling, partial curve, poor fit]
63 | N/C(=N\OC(=O)c1ccc(Br)o1)c1ccccn1 | inconclusive [falling, partial curve]
64 | CSc1ccc(S(=O)(=O)N2CCC(C(=O)NCc3ccco3)CC2)cc1 | inactive
65 | CCCCn1c(N)c(NCc2ccccc2OC)c(=O)[nH]c1=O | inconclusive [falling, single point]
66 | CC(C)c1ccc(/C=N/NC(=O)c2ccccn2)cc1 | inconclusive [falling, single point]
67 | COc1ccc(C(=O)Cn2nc(CNc3ccc(Br)cc3)[n+]3c2CCCCC3)cc1 | inconclusive [falling, partial curve]
68 | Cc1nc2ccc(C(=O)NCc3ccc4c(c3)OCO4)cc2s1 | inactive
69 | COc1ccc(C(=O)/C(C#N)=N/Nc2cccc([N+](=O)[O-])c2)cc1 | inconclusive [falling, single point]
70 | Cc1cc(Cl)c2oc(C(=O)NC3CCC(O)CC3)c(C)c2c1 (stereo unspecified) | inconclusive [falling, single point]
71 | Cc1ccc(C(=O)Nc2ccc3c(c2)OCO3)o1 | inconclusive [falling, single point]
72 | On1nnc2cc(C(F)(F)F)ccc21 | inconclusive [falling, single point]
73 | COC(=O)NNC(=S)Nc1ccc(Br)cc1 | inconclusive [falling, single point]
74 | Cc1ccc(OCCN2C(=O)S/C(=C\c3ccc(C)o3)C2=O)cc1 | inactive
75 | Brc1ccc(-c2nc(-c3ccccn3)no2)o1 | active: 17.8 µM
76 | CSc1nc2ccc(NC(=O)NC(=O)c3c(F)cccc3F)cc2s1 | inconclusive [falling, single point]

— PubChem BioAssay AID1634 (National Center for Advancing Translational Sciences (NCATS), 2009)
